# Measurements from PubChem BioAssay AID938 (National Center for Advancing Translational Sciences (NCATS), 2007).
# The campaign covered roughly 73,000 compounds. About 1,800 (2.5%) were called active. The inconclusive results got no clear call from the source; some entries with a clear call stand among them for comparison. Calls follow the shape of the dose curve; as a rule, active = well fitted activation curve with a large enough effect; inconclusive = small, poorly fitted or top-dose-only effect; inactive = no such curve, though single readings can be large or run the other way. No potency is given beside an inconclusive call; the fits are too rough.
# Test: qHTS Assay for Agonists of the Thyroid Stimulating Hormone Receptor: Activators of Intracellular cAMP Concentrations in Parental HEK 293; also: nearly all actives have a fitted effect of over 55% in size; as to activation: % of control where 0% means no effect
# Settings: parental HEK293 CNG cAMP sensor, membrane potential fluorescence; activation: at 57.1 µM (top of the series) unless noted
# In short: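 Parental HEK 293 cells stably expressing a cAMP-gated CNG channel were loaded with membrane potential dye containing 100 uM RO 20-1724 for 60 min. Compound added for 30 min; depolarization read as fluorescence intensity at 590 nm.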
# Potency is read from the fitted curve at half-maximal effect; tags tell the direction and shape of the fitted curve.
SMILES,Potency,activation
Cc1cc(C)nc(N2CCC(C(=O)NC3CCCCCC3)CC2)n1,"inconclusive [activator, single point]",
COc1ccc(C2C(C(=O)Nc3cccnc3)=C(C)Nc3nc(-c4ccco4)nn32)cc1 (stereo not given),"inconclusive [activator, partial curve]",
CCCCc1c(O)nc(SCC(=O)Nc2ccc3c(c2)CCC3)[nH]c1=O,,inactive: -18.1%
CCOC(=O)Cn1c(C(=O)OCC)cc2sccc21,"inconclusive [activator, single point]",
COc1ccc(-c2noc(CCCOc3ccccc3)n2)cc1OC,"inconclusive [activator, single point]",
CCN(CC)CCOC(=O)C1(C2CCCCC2)CCCCC1,"inconclusive [activator, single point]",
COc1ccc(C2C3=C(CC(C)(C)CC3=O)Oc3ncn(CC(C)C)c(=N)c32)cc1 (stereo not given),,inactive: -30.4%
CCn1c(CSc2nnc(-c3ccoc3C)n2C)nc2cc(S(=O)(=O)N(C)C)ccc21,"inconclusive [activator, partial curve]",
O=c1c2ccccc2n(Cc2ccc(Cl)cc2)c(=O)n1Cc1ccco1,"inconclusive [activator, partial curve]",
O=C(c1cnc2sccn2c1=O)N(Cc1ccccc1)c1ccccn1,,inactive: -9.26%
Cc1ccc(C(=O)Nc2ccccc2N2CCN(C(=O)C(C)C)CC2)cc1,"inconclusive [activator, partial curve]",
CCCCOCCOCCOCc1cc2c(cc1CCC)OCO2,active: 31.6 µM,
O=C(CSc1ccc2nnc(-c3cccc(F)c3)n2n1)NCc1ccco1,"inconclusive [activator, partial curve]",
COC(=O)C1(CC(C)C)C=C2C(=C(c3ccccc3)C(=O)C2C)CN1 (stereo not given),,inactive: 17.9%
CCCOc1ccc(-c2nnc(-c3ccco3)o2)cc1,"inconclusive [activator, partial curve]",
CCOC(=O)CSc1nc2sc3c(c2c(=O)n1CC)CC(C)(C)OC3,,inactive: 5.89%
O=C(Nc1ccc2ccccc2c1)c1cccnc1,,inactive: -0.495%
CCOC(=O)Nc1cc(C)c(Cl)cc1OC,,inactive: 10.8%
N#CCCn1nc(-c2ccccc2)cc1-n1c(C(F)(F)F)nc2ccccc21,"inconclusive [activator, partial curve]",
CCCC(c1nnnn1CCc1ccccc1)N1CCN(C(=O)c2ccco2)CC1 (stereo not given),"inconclusive [activator, partial curve]",
COc1ccccc1C(=O)Nc1c2c(nn1-c1cccc(C)c1C)CS(=O)(=O)C2,active: 5.01 µM,
COc1ccc(-c2nnc(SCc3ncc(-c4ccccc4)o3)o2)cc1,"inconclusive [activator, single point]",
Cc1c(-c2ccccc2)oc2cc(O)ccc2c1=O,"inconclusive [activator, partial curve, poor fit]",
Cc1cc2nc(N)sc2cc1C,"inconclusive [activator, single point]",
O=C(O)COc1ccc(Br)cc1/C=N/O,"inconclusive [activator, full curve, poor fit]",

SMILES,Potency,activation
COc1ccc(OC)c(C(c2nnnn2CCC(C)C)N2CCN(C(=O)c3ccco3)CC2)c1 (stereo not given),active: 15.8 µM,
COc1ccc2cc(CN(CCc3ccccc3)Cc3nnnn3Cc3ccco3)c(=O)[nH]c2c1,"inconclusive [activator, partial curve]",
CCOC(=O)c1cc(CC)sc1NC(=O)Cc1ccsc1,"inconclusive [activator, single point]",
CCCCCCCCCCCCCCCC(=O)OC(CO)CO,,inactive: 26.8%
CCC(=O)N1CCN(c2cc(C)ccc2C)CC1,"inconclusive [activator, partial curve]",
Cc1cc(C)c2[nH]c(=O)c(C(c3nnnn3CC3CCCO3)N3CCCC(C)C3)cc2c1 (stereo not given),"inconclusive [activator, full curve]",
COC(=O)NC(CC(C)=O)c1ccc2c(c1)OCO2 (stereo not given),,inactive: -0.057% [at 11.4 µM]
N/C(CSc1nc(-c2ccccc2)c(-c2ccccc2)o1)=N\O,"inconclusive [activator, single point]",
CCOC(=O)C1CCCN(C(=O)c2cnn3c(C(F)(F)F)cc(-c4ccccc4)nc23)C1 (stereo not given),"inconclusive [activator, full curve]",
COCc1nnc(NC(=O)CSc2ccc(C)cc2)s1,"inconclusive [activator, single point]",
O=C(CCc1nc2ccccc2[nH]1)Nc1ccc2c(c1)OCO2,,inactive: -10.1%
Cc1cc2c(c(=O)n1C)C(Cc1ccccc1)C(C#N)=C(N)O2 (stereo not given),"inconclusive [activator, single point]",
C[C@@H]1C=C[C@](Cc2ccccc2)(C(=O)NCC2CC2)N1C(=O)c1ccccc1,active: 15.8 µM,
CC/C=C\C[C@H]1C(=O)CC[C@@H]1CC(=O)O,,inactive: 13.3%
O=C1CC(c2ccc(F)cc2)C2=C(CCCC2=O)N1 (stereo not given),,inactive: 1.56%
O=C(Nc1ccc(N2CCOCC2)c(F)c1)c1ccncc1,,inactive: -3.73%
C/C(CCC(=O)OC[C@@H]1O[C@H](C#Cc2ccccc2)C=C[C@@H]1Oc1ccc(C)cc1)=N/O[C@@H](C)CN1CCCc2nc(C)c(C)cc21,"inconclusive [activator, partial curve]",
COc1ccc(C(=O)OCCN2C(=O)c3ccccc3C2=O)cc1,,inactive: 11.1%
CCOc1ccc2nc(NC(=O)CSc3nc4c(c(=O)n(C)c(=O)n4C)n3C(C)C)sc2c1,,inactive: 25.2%
COc1ccc(NC(=O)c2cccnc2)c(OC)c1,"inconclusive [activator, single point]",
Cc1nc2scc(-c3ccccc3)c2c(=O)n1N,,inactive: -12.7%
COc1cccc(CSc2nnc(-c3ccc(F)cc3)o2)c1,"inconclusive [activator, partial curve]",
Cc1nc2cnc(N(C)C)nc2n(Cc2cccs2)c1=O,,inactive: 6.03%
O=c1cnc2cnc(N3CCOCC3)nc2n1Cc1cccs1,"inconclusive [activator, partial curve]",
O=c1cc(O)cc(/C=C\c2ccc(O)c(O)c2)o1,"inconclusive [activator, single point]",

SMILES,Potency,activation
c1ccc(C2=NCCCN2)cc1,"inconclusive [activator, full curve]",
Cc1occc1C(=O)Nc1cc(C(C)(C)C)on1,"inconclusive [activator, partial curve]",
COc1ccc(-c2cc(NCc3ccccn3)n3ncnc3n2)cc1,"inconclusive [activator, single point]",
CN(C)Cc1ccccc1-c1cncnc1NC1CC1,,inactive: -7.79%
CN1/C(=C\P(=O)(N(C)C)N(C)C)C(C)(C)c2ccccc21,"inconclusive [activator, partial curve]",
COc1ccccc1-c1nc(C#N)c(N2CCC(Cc3ccccc3)CC2)o1,"inconclusive [activator, partial curve]",
CC(=O)Oc1cc(OC(C)=O)c2c(C)cc(=O)oc2c1,"inconclusive [activator, single point]",
CC1CCc2c(nc3ncnn3c2N2CCN(c3ccccc3F)CC2)C1 (stereo not given),"inconclusive [activator, partial curve]",
COc1ccc(NC(=O)N(CCC(C)C)C(C)c2ccccn2)c(OC)c1 (stereo not given),"inconclusive [activator, single point]",
CC1CCCC(NC(=O)C2CCN(S(=O)(=O)N3CCC4(CC3)OCCO4)CC2)C1C (stereo not given),,inactive: 5.63%
O=C1C=C(NCc2ccco2)C2(CCCCC2)O1,"inconclusive [activator, single point]",
Oc1ccc(C=Nc2cccc3ncccc23)c(O)c1,,inactive: 4.66%
COc1ccc2c(c1)c1nc(SCC(C)C)n(CCO)c(=O)c1n2C,,inactive: -4.52%
c1ccc(Nc2nc(-c3cccnc3)nc3ccccc23)cc1,"inconclusive [activator, single point]",
CC(C)Cn1c2c(c(O)c(C(=O)Nc3nccs3)c1=O)CCCC2,"inconclusive [activator, partial curve]",
COc1ccc(NC(=O)c2cnc3sccn3c2=O)cc1OC,"inconclusive [activator, single point]",
Cc1nc(N2CCN(Cc3ccc4c(c3)OCO4)CC2)nc2c1C(=O)CC(c1ccco1)C2 (stereo not given),"inconclusive [activator, single point]",
O=C(O)CCCCCCCC(=O)O,"inconclusive [activator, single point]",
COc1cc(NC(=O)C2COc3ccccc3O2)c(OC)cc1Cl (stereo not given),active: 15.8 µM,
Cc1ccc(-n2nc3c(c2NC(=O)c2cccs2)CSC3)cc1,"inconclusive [activator, full curve]",
Cn1c(=O)c(-c2cccc(F)c2)nc2cncnc21,"inconclusive [activator, single point]",
O=C(Cn1c2c(c(-c3ccccc3)cc1=O)CCCC2)N1CCCCCC1,"inconclusive [activator, partial curve]",
CCOc1ccc(OCC)c(NC(=O)CSc2nc3cccnc3n2C)c1,active: 31.6 µM,
COc1ccccc1N(CC(=O)NC1CCCC1)C(=O)c1csnn1,"inconclusive [activator, single point]",
COc1cc(C(=O)Nc2ccc3c(c2)OCCO3)ccc1OC(C)C,,inactive: -1.27%
